# Reference: article PMC4336329 (PLoS ONE, 2015)
# Screen size: about 310,000 compounds; about 14,000 (4.5%) showed an effect of 50% or more. Effects have a minus sign here. This is one part of the list.
# Molecular target: human ether-à-go-go-related gene (hERG) potassium channel (human, UniProt Q12809)
# Experiment: primary screen, population patch clamp on CHO cells stably expressing hERG
# 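Further: peak tail current of the secondary pulse compared with the same well before compound.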
# Chain of human ether-à-go-go-related gene (hERG) potassium channel (Q12809 whole entry, looked up): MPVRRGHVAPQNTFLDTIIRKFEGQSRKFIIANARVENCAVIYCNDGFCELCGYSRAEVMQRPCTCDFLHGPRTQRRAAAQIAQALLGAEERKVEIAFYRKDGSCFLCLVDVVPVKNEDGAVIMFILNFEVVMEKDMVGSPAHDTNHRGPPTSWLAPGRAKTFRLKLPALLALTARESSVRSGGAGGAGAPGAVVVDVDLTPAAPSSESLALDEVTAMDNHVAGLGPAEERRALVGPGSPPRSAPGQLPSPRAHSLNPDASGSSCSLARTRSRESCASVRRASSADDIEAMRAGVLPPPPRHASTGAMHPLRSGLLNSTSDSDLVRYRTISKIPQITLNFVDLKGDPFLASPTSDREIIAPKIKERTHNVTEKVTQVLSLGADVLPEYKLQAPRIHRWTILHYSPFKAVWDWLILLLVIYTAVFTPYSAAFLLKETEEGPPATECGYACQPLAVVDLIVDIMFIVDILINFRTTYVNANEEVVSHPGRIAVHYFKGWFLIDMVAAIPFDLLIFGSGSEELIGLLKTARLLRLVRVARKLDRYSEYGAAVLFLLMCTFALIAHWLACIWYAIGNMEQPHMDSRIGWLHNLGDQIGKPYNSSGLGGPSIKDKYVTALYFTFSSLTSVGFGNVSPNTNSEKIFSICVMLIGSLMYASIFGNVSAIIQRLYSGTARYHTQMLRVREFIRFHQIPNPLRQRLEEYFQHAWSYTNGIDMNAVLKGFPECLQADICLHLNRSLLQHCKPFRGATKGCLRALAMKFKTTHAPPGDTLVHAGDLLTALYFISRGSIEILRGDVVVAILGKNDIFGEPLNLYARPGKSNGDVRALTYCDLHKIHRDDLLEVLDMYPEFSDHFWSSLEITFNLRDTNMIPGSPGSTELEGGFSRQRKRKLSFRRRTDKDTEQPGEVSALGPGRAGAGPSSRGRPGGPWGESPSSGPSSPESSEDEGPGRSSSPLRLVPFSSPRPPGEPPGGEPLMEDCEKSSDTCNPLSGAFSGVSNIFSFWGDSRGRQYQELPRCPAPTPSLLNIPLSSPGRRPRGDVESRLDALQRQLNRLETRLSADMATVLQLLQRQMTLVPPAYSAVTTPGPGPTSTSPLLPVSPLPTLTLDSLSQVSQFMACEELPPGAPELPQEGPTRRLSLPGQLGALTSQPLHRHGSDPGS
row,SMILES,"hERG current change (%, negative = inhibition) at 10uM [%]"
1,COC(=O)c1ccc(OCC(O)CN(CCO)CC(O)Cn2ccc3ccccc32)cc1 (centres unmarked),6.93
2,Cc1ccc(NC(=O)C2CCN(C(=O)c3ccco3)CC2)cc1C,1.66
3,Cc1ccc(C2=Nc3ccccc3N=C(c3ccc([N+](=O)[O-])cc3)C2)c(O)c1,-3.53
4,CSc1nc2ccc(NC(=O)c3c(F)cccc3F)cc2s1,8.89
5,CCCCC1=CC2=CC(=O)C(C)(OC(=O)CC)C(=O)C2=CN1CCc1ccc(Br)cc1 (centres unmarked),-58.9
6,COc1ccc(C(=O)NCc2nnc(SCC(=O)N3CCc4ccccc43)n2Cc2ccccc2)cc1,5.66
7,Cc1ccc(S(=O)(=O)/C(C#N)=C/c2c(N3CC(C)OC(C)C3)nc3c(C)cccn3c2=O)cc1 (centres unmarked),-28.1
8,CCOC(=O)c1ccccc1NC(=O)Cn1cnc2c(cnn2-c2ccc(OC)cc2)c1=O,-3.53
9,CCC(C)[C@H](NC(=O)C1CC(=O)N(c2ccc3c(c2)OCCO3)C1)C(=O)N1CCCCC1 (some centres unmarked),13.4
10,Cc1ccc(/C=C2\SC(=S)N(CCC(=O)NCCCN3CCOCC3)C2=O)cc1,-8.59
11,CCOc1ccccc1/C=N/NC(=O)c1c(C)nc2ccc(Br)cn12,-3.19
12,O=C(NCc1ccccc1Cl)C1CCCN(S(=O)(=O)c2cccc3nsnc23)C1 (centres unmarked),-18.3
13,O=C(CCS(=O)(=O)c1ccccc1)Nc1nc2c(s1)CCCC2,0.42
14,COc1cccc(NC(=O)CN(C)C(=O)Cc2ccc(Cl)cc2Cl)c1,9.75
15,Cc1ccc(F)cc1NS(=O)(=O)c1ccc(Cl)s1,-1.11
16,O=C(CCc1nnc(Cc2cccc(C(F)(F)F)c2)o1)NCCc1ccccc1F,-13.3
17,COc1ccc(OC)c(CNC(=O)C2CCCN(C(=O)N(C)C)C2)c1 (centres unmarked),8.08
18,COc1ccc(C(=O)COC(=O)CCN2C(=O)C3C4CCC(C4)C3C2=O)cc1 (centres unmarked),-11.5
19,CC(=O)NC1=NN(C(C)=O)C(C)(c2ccccc2)S1 (centres unmarked),11.9

row,SMILES,"hERG current change (%, negative = inhibition) at 10uM [%]"
1,CNC(=O)c1cc2c(cn1)[nH]c1ccccc12,31
2,Cc1cccc(N2CC(=O)N(c3cccc(C)c3)CC2=O)c1,0.689
3,Cc1cc(N2CCN(c3ccc(F)cc3)CC2)nc(-c2ccccc2)n1,-13.7
4,O=C1CCC(c2ccc3c(c2)CCC3)=NN1,17.3
5,CCc1ccc(NC(=O)CN2C(=O)CC(C)S(=O)(=O)c3ccccc32)cc1 (centres unmarked),-3.99
6,NNC(=O)c1ncoc1-c1ccc(Cl)cc1,12.4
7,CCN(CC(=O)Nc1ccc(C)c(F)c1)CC(=O)NC(C)C,4.17
8,O=C(CCC(=O)N1CCN(S(=O)(=O)c2ccccc2)CC1)c1cccs1,-6.39
9,COc1ccccc1C(c1nnnn1Cc1ccccc1)N1CCN(C2CCCC2)CC1.Cl (centres unmarked),-35.5
10,COc1ccc(Oc2c(C=O)c3ccccc3n2C)cc1,-7.74
11,CCc1ccc(NC(=O)N2CCN(C(=O)C3CCCO3)CC2)cc1 (centres unmarked),2.96
12,N#C/C(=C\c1cccs1)C(=O)Nc1nccs1,8.87
13,COc1cc(S(=O)(=O)NCc2ccccn2)ccc1Cl,-10
14,O=C(Cn1nnc(-c2ccc3c(c2)OCO3)n1)N1CCOCC1,10.3
15,CC(C)(C)NC(=O)/C(=C/c1ccco1)c1ccccc1,0.949
16,O=C(c1cccs1)N1CCN(Cc2ccccc2[N+](=O)[O-])CC1,-17.7
17,O=C(Cn1nnc(-c2cc(Cl)ccc2-n2cnnn2)n1)N1CCCc2ccccc21,-30.3
18,COc1ccc(CCNC(=O)C2CCN(C(=O)c3ccc(Br)cc3)CC2)cc1OC,-12
19,CC1CCN(C(=O)CCCN2C(=O)c3cccnc3Oc3ccc(Cl)cc32)CC1,-22.8

row,SMILES,"hERG current change (%, negative = inhibition) at 10uM [%]"
1,CCn1nc(C)c(CNC(=O)C2CCC(=O)N(Cc3ccc(Cl)cc3)C2)c1C (centres unmarked),4.64
2,CC1(c2ccccc2)NC(=O)N(CC(=O)Nc2ccc(S(N)(=O)=O)cc2)C1=O (centres unmarked),9.54
3,Cc1nc(-c2ccc(Br)cc2)ccc1C(=O)O,4.08
4,O=C(NCCC1CCCCN1S(=O)(=O)c1ccc(Cl)cc1)C(=O)NCCN1CCOCC1 (centres unmarked),-9.93
5,COC(=O)c1cc(-c2cccc(OC)c2)n[nH]1,7.42
6,Cc1ccc(Nc2nc(N)nc(CN3CCN(Cc4ccccc4)CC3)n2)cc1Cl,-76.4
7,O=C(N[C@@H](Cc1c[nH]c2ccccc12)C(=O)O)c1ccc(Cl)cc1,10.4
8,CC(c1ccccc1)N(C)CC(=O)NC(=O)NCCC1=CCCCC1 (centres unmarked),-30.7
9,O=C(COC(=O)c1c[nH]c2ccccc12)Nc1cccc(F)c1,13.9
10,O=c1[nH]cnc2scc(C3COc4ccccc4O3)c12 (centres unmarked),-12.7
11,CCN(CC)S(=O)(=O)c1cccc(C(=O)N/N=C(\C)c2ccc(O)cc2O)c1,12.7
12,c1ccc(COC2CCCN(Cc3nc(-c4cnccn4)no3)C2)cc1 (centres unmarked),13.5
13,O=C(O)C1CCCCC1C(=O)Nc1ccc(S(=O)(=O)N2CCCCCC2)cc1 (centres unmarked),11
14,OCC1CCCN(c2ncnc3scc(-c4ccccc4)c23)C1 (centres unmarked),3.73
15,COCc1cc(C)n(CC(=O)Nc2ccccc2C(=O)OC)c(=O)c1C#N,0.16
16,COc1ccc(CNC(=O)CN2C(=O)C(C)N(c3ccc(C)cc3)C2=O)cc1 (centres unmarked),-4.38
17,Cc1cccc(CSc2nnc(NC(=O)c3ccco3)s2)c1,12.5
18,Cc1nc(N2CCN(C(=O)CCC(=O)O)CC2)c2c(C)c(C)sc2n1,-1.2
